Hit rate of the full screen: of about 150,000 compounds, about 6,500 (4.3%) were called active. The shares of active, inactive and inconclusive entries below differ from those in the screen. The call rests on the fitted dose curve; in most records, active means well fitted inhibition curve with a large enough effect (not every such curve was filed as active); inconclusive means small, poorly fitted or top-dose-only effect, or another doubt; inactive means no such curve, though single readings can be large or run the other way. Potencies of inconclusive entries are left out as doubtful fits.
target: 15-hydroxyprostaglandin dehydrogenase [NAD(+)] (Homo sapiens) (UniProt P15428); assay: qHTS Assay for Inhibitors of HPGD (15-Hydroxyprostaglandin Dehydrogenase); settings: purified HPGD, NADH fluorescence kinetic, PGE2 substrate; activity change, negative = inhibition: hits give low values
Chain of UniProt P15428 (P15428 whole entry, looked up): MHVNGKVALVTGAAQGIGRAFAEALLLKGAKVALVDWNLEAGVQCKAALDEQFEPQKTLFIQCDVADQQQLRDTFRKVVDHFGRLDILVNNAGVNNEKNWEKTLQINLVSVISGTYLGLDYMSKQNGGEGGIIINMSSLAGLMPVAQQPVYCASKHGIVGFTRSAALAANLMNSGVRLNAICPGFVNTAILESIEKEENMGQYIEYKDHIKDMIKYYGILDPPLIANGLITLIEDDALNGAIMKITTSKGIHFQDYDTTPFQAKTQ
Method in brief: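 NADH formation kinetics: reaction with 30 uM PGE2 and 1 mM NAD+ (final), 20 nM enzyme, Tris-HCl pH 8 with Tween 20, after 15 min compound preincubation at room temperature. Fluorescence change, last versus first of five reads.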
On the % scale 0 is the no-effect control and ±100 the full control effect; potency means the concentration at half of the fitted maximal effect; tags describe the fitted curve by direction and shape.

SMILES | activity change, negative = inhibition | Potency
CC1C/C(=N/N=C2/NC(=O)CS2)CC(C)(C)C1 (stereo unspecified) | inactive: -1.69% | –
CCc1ccc(N(CC(=O)Nc2sc3c(c2C(=O)OC)CCCC3)S(C)(=O)=O)cc1 | – | inconclusive [inhibitor, single point]
COCCN(Cc1cc2ccccc2[nH]c1=O)C(=O)c1ccccc1OC | – | inconclusive [inhibitor, single point]
COc1ccc(CCN2C(=O)CC(N3CCOCC3)C2=O)cc1OC (stereo unspecified) | inactive: -13.3% | –
CCOC(=O)C(CC)Sc1nc2c(c(=O)[nH]c(=O)n2C)n1CCc1ccccc1 (stereo unspecified) | – | active: 22.4 µM
CC(C)CC[n+]1ccn(-c2nc3ccccc3nc2[N-]S(=O)(=O)c2ccccc2)c1 | – | inconclusive [inhibitor, partial curve]
CCOC(=O)C1=C(N)OC2=C(C(=O)CCC2)C1c1sccc1C (stereo unspecified) | inactive: -0.909% | –
O=[N+]([O-])c1cc(Cl)ccc1-c1nc(-c2ccccc2)no1 | – | active: 14.1 µM
O=C1CC(c2ccc3c(c2)OCO3)Sc2nc3ccccc3n21 (stereo unspecified) | – | inconclusive [inhibitor, single point]
COc1ccc(-c2nc(-c3ccc4c(c3)OCO4)[nH]c2-c2ccc(OC)cc2)cc1 | – | inconclusive [inhibitor, full curve]
Nc1ccc2nn(-c3cccc4ccccc34)nc2c1 | – | inconclusive [inhibitor, partial curve]
CCOC(=O)c1cc(CC)sc1NC(=O)c1ccc2c(c1)OCCO2 | – | inconclusive [inhibitor, partial curve]
CCOC(=O)CCc1c(C)nc2cc(-c3ccccc3OC)[nH]n2c1=O | – | inconclusive [inhibitor, partial curve]
Cc1ccc(SCc2ccc(C(=O)NCc3ccncc3)cc2)cc1 | – | inconclusive [inhibitor, partial curve]
Cc1c(Nc2cc(N3CCCC(C)C3)c3nonc3c2[N+](=O)[O-])c(=O)n(-c2ccccc2)n1C (stereo unspecified) | – | inconclusive [inhibitor, partial curve]
Cc1cc(O)c(C(C)C)cc1N=C1CSC(=O)N1 | – | active: 31.6 µM
COC(=O)CSc1nc2c(c(-c3ccco3)c1C#N)CCCC2 | – | active: 12.6 µM
O=C(N/N=C/c1ccccc1Cl)c1cccc(F)c1 | – | inconclusive [inhibitor, partial curve]
CCCCCCCC/C=C/CCCCCCCCOP(=O)([O-])OCC[N+](C)(C)C | inactive: -8.98% | –
CCN(CC)C(=O)C1CCCN(C(=O)Nc2ccc3nsnc3c2)C1 (stereo unspecified) | – | inconclusive [inhibitor, partial curve]
NC(=O)COc1ccc2c3c(c(=O)oc2c1)CCCCC3 | – | inconclusive [inhibitor, partial curve]
Cc1ccc2nc(/C(C#N)=C\c3ccc(N4CCCCC4)c([N+](=O)[O-])c3)[nH]c2c1 | – | inconclusive [inhibitor, partial curve]
O=S(=O)(O)c1ccc(-c2nnc(-c3ccccn3)nc2-c2ccc(S(=O)(=O)O)o2)o1 | inactive: -5.37% | –

SMILES | activity change, negative = inhibition | Potency
Cc1ccsc1C1Nc2ccc3ncccc3c2C2=C1C(=O)CCC2 (stereo unspecified) | – | inconclusive [inhibitor, partial curve]
C=CCCCCCCCCCCC/C=C/C(O)COC(C)=O (stereo unspecified) | inactive: -28.2% | –
COc1cccc(S(=O)(=O)Nc2cccc(C(=O)N3CCOCC3)c2)c1 | inactive: -0.779% | –
CCC(=O)Nc1ccc2c(c1)ncn2-c1ccc(OC)cc1 | – | inconclusive [inhibitor, partial curve]
COc1ccc(-c2n[nH]c(=S)o2)c(OC)c1 | – | inconclusive [inhibitor, partial curve]
Brc1ccccc1-c1nnc(COc2cccc3cccnc23)o1 | – | inconclusive [inhibitor, partial curve]
CCOC(=O)C1=C(C)N=c2s/c(=C3/C(=O)Nc4ccccc43)c(=O)n2C1c1ccc(C)cc1 (stereo unspecified) | – | inconclusive [inhibitor, partial curve]
O=C(NCc1cccs1)C1CCCN(c2ncccn2)C1 (stereo unspecified) | inactive: -19.1% | –
COc1ccc(-c2cn3c(C)c(C(=O)Nc4cc(NC(C)=O)ccc4OC)sc3n2)cc1 | – | inconclusive [inhibitor, partial curve]
COCC(=O)N1CCC2(CCCN(Cc3ccccc3)C2)CC1 | inactive: 0.208% | –
O=C(O)[C@H]1CCCC[C@@H]1c1c2ccc(=O)c(O)c-2oc2c(O)c(O)ccc12 | – | active: 4.47 µM
Nc1cc(=O)[nH]c(SCC(=O)Nc2cccc(Cl)c2)n1 | inactive: -5.18% | –
COc1cc(CCN2C(=O)c3cccc4cccc(c34)C2=O)c(S(=O)(=O)N2CCCCCC2)cc1OC | – | inconclusive [inhibitor, partial curve]
O=C1C(=O)c2c(C(=O)c3ccccc3)coc2-c2ccccc21 | – | active: 22.4 µM
O=S(=O)(Nc1nc2c(s1)CCCC2)c1ccc2ccccc2c1 | inactive: -23.8% | –
Cc1ccccc1C(=O)NCCCCc1ccccc1 | – | inconclusive [inhibitor, partial curve]
Cc1ccc2nc3c(cc(C#N)c(=O)n3CC3CCCO3)c(=O)n2c1 (stereo unspecified) | – | inconclusive [inhibitor, partial curve]
COc1cc(/C=C/c2cc(OC(C)=O)c3ccccc3n2)c(OC(C)=O)c([N+](=O)[O-])c1 | inactive: -15.1% | –
Cc1ccccc1Oc1ccc(-c2nc(N)nc(N)n2)cc1 | – | active: 25.1 µM
COc1cc(NC(=O)C2CCC(CNc3c(N4CCCCC4)c(=O)c3=O)CC2)cc(OC)c1 (stereo unspecified) | inactive: -8.79% | –
Cc1nc2nc(SCC(=O)NCc3ccco3)nn2c(C)c1Cc1ccccc1 | – | active: 22.4 µM
c1ccc2c3c([nH]c2c1)-c1[nH]ncc1CC3 | – | inconclusive [inhibitor, partial curve]
CCn1c(CSc2nc3ccccc3s2)nnc1SCC(=O)OC(C)(C)C | – | inconclusive [inhibitor, partial curve]

Source: PubChem BioAssay AID894 (National Center for Advancing Translational Sciences (NCATS), 2007)
